Test results: the supplement of paper PMC8047034
Structures can show the parent of a compound that is named as a salt. The list shows a part of the results. Repeats are few or missing, and single values can be far off.

Legend:
OVCAR4 = test: log2 surviving fraction (library drug vs vehicle, or drug + carboplatin vs carboplatin alone; relative to plate median); ovarian cancer lines: OVCAR4 is platinum-sensitive and Ov4Carbo platinum-resistant; higher = more cell survival; settings: library drug concentration 10 µM, 7 days
Ov4Carbo = test: as above; settings: library drug concentration 10 µM, 7 days

O=C(O)c1nn(Cc2ccc(Cl)cc2Cl)c2ccccc12 [Lonidamine]
log2 surviving fraction (OVCAR4; carboplatin co-treatment 0 µM): 0.0717
log2 surviving fraction (OVCAR4; carboplatin co-treatment 5 µM): 0.176
log2 surviving fraction (Ov4Carbo; carboplatin co-treatment 0 µM): -0.695
log2 surviving fraction (Ov4Carbo; carboplatin co-treatment 5 µM): 0.0284

CN1CCN2c3ncccc3Cc3ccccc3C2C1 (stereo unspecified) [Mirtazapine (Remeron, Avanza)]
log2 surviving fraction (OVCAR4; carboplatin co-treatment 0 µM): 0.74
log2 surviving fraction (OVCAR4; carboplatin co-treatment 5 µM): 0.583
log2 surviving fraction (Ov4Carbo; carboplatin co-treatment 0 µM): 0.0242
log2 surviving fraction (Ov4Carbo; carboplatin co-treatment 5 µM): 0.399

CC(=O)OCC(=O)[C@@]1(O)CC[C@H]2[C@@H]3CCC4=CC(=O)C=C[C@]4(C)[C@H]3[C@@H](O)C[C@@]21C [Prednisolone acetate (Omnipred)]
log2 surviving fraction (OVCAR4; carboplatin co-treatment 0 µM): 0.69
log2 surviving fraction (OVCAR4; carboplatin co-treatment 5 µM): 0.272
log2 surviving fraction (Ov4Carbo; carboplatin co-treatment 0 µM): 2.15
log2 surviving fraction (Ov4Carbo; carboplatin co-treatment 5 µM): 1.21

CCCCCCCCCCCCCCCCCCCCCCO [Docosanol (Abreva)]
log2 surviving fraction (OVCAR4; carboplatin co-treatment 0 µM): -0.0645
log2 surviving fraction (OVCAR4; carboplatin co-treatment 5 µM): -0.00338
log2 surviving fraction (Ov4Carbo; carboplatin co-treatment 0 µM): 0.23
log2 surviving fraction (Ov4Carbo; carboplatin co-treatment 5 µM): 0.382

O=C1[C@@H]2[C@H]3CC[C@H](C3)[C@@H]2C(=O)N1C[C@@H]1CCCC[C@H]1CN1CCN(c2nsc3ccccc23)CC1 [Lurasidone HCl]
log2 surviving fraction (OVCAR4; carboplatin co-treatment 0 µM): -0.962
log2 surviving fraction (OVCAR4; carboplatin co-treatment 5 µM): -0.879
log2 surviving fraction (Ov4Carbo; carboplatin co-treatment 0 µM): -0.858
log2 surviving fraction (Ov4Carbo; carboplatin co-treatment 5 µM): -0.82

CCCN(CCC)S(=O)(=O)c1ccc(C(=O)O)cc1 [Probenecid (Benemid)]
log2 surviving fraction (OVCAR4; carboplatin co-treatment 0 µM): 0.49
log2 surviving fraction (OVCAR4; carboplatin co-treatment 5 µM): 0.273
log2 surviving fraction (Ov4Carbo; carboplatin co-treatment 0 µM): 1.4
log2 surviving fraction (Ov4Carbo; carboplatin co-treatment 5 µM): 1.52

O=C(O)CCCN1CCC(O[C@@H](c2ccc(Cl)cc2)c2ccccn2)CC1 [Bepotastine Besilate]
log2 surviving fraction (OVCAR4; carboplatin co-treatment 0 µM): 0.631
log2 surviving fraction (OVCAR4; carboplatin co-treatment 5 µM): -0.211
log2 surviving fraction (Ov4Carbo; carboplatin co-treatment 0 µM): -0.322
log2 surviving fraction (Ov4Carbo; carboplatin co-treatment 5 µM): 0.51

O=C[C@H](O)[C@@H](O)[C@H](O)CO [Xylose]
log2 surviving fraction (OVCAR4; carboplatin co-treatment 0 µM): -0.17
log2 surviving fraction (OVCAR4; carboplatin co-treatment 5 µM): 0.326
log2 surviving fraction (Ov4Carbo; carboplatin co-treatment 0 µM): -0.315
log2 surviving fraction (Ov4Carbo; carboplatin co-treatment 5 µM): -0.647

CC(=O)Oc1ccccc1C(=O)O [Aspirin (Acetylsalicylic acid)]
log2 surviving fraction (OVCAR4; carboplatin co-treatment 0 µM): 0.708
log2 surviving fraction (OVCAR4; carboplatin co-treatment 5 µM): 0.856
log2 surviving fraction (Ov4Carbo; carboplatin co-treatment 0 µM): -0.6
log2 surviving fraction (Ov4Carbo; carboplatin co-treatment 5 µM): 0.329

CCCCCCCCCCCCCCCC(=O)O[C@@H]1[C@@H](O)[C@@H](O)[C@@H]([C@H](NC(=O)[C@@H]2C[C@@H](CCC)CN2C)[C@H](C)Cl)O[C@@H]1SC [Clindamycin palmitate HCl]
log2 surviving fraction (OVCAR4; carboplatin co-treatment 0 µM): -0.211
log2 surviving fraction (OVCAR4; carboplatin co-treatment 5 µM): 0.0465
log2 surviving fraction (Ov4Carbo; carboplatin co-treatment 0 µM): 0.169
log2 surviving fraction (Ov4Carbo; carboplatin co-treatment 5 µM): 0.211

Clc1ccc2nsnc2c1NC1=NCCN1 [Tizanidine HCl]
log2 surviving fraction (OVCAR4; carboplatin co-treatment 0 µM): 0.653
log2 surviving fraction (OVCAR4; carboplatin co-treatment 5 µM): 1.11
log2 surviving fraction (Ov4Carbo; carboplatin co-treatment 0 µM): 1.08
log2 surviving fraction (Ov4Carbo; carboplatin co-treatment 5 µM): 0.269

COc1ccc2cc(CCC(C)=O)ccc2c1 [Nabumetone]
log2 surviving fraction (OVCAR4; carboplatin co-treatment 0 µM): -0.00591
log2 surviving fraction (OVCAR4; carboplatin co-treatment 5 µM): 0.322
log2 surviving fraction (Ov4Carbo; carboplatin co-treatment 0 µM): -0.122
log2 surviving fraction (Ov4Carbo; carboplatin co-treatment 5 µM): -0.00315

CC[C@H](C)C(=O)O[C@H]1C[C@H](O)C=C2C=C[C@H](C)[C@H](CC[C@@H](O)C[C@@H](O)CC(=O)O)[C@H]21 [Pravastatin sodium]
log2 surviving fraction (OVCAR4; carboplatin co-treatment 0 µM): 0.312
log2 surviving fraction (OVCAR4; carboplatin co-treatment 5 µM): -0.016
log2 surviving fraction (Ov4Carbo; carboplatin co-treatment 0 µM): -0.43
log2 surviving fraction (Ov4Carbo; carboplatin co-treatment 5 µM): -0.234

CCN(Cc1ccncc1)C(=O)C(CO)c1ccccc1 (stereo unspecified) [Tropicamide]
log2 surviving fraction (OVCAR4; carboplatin co-treatment 0 µM): 1.14
log2 surviving fraction (OVCAR4; carboplatin co-treatment 5 µM): 1.48
log2 surviving fraction (Ov4Carbo; carboplatin co-treatment 0 µM): 0.622
log2 surviving fraction (Ov4Carbo; carboplatin co-treatment 5 µM): -0.176

Cc1cn([C@@H]2C[C@@H](O)[C@H](CO)O2)c(=O)[nH]c1=O [Telbivudine (Sebivo, Tyzeka)]
log2 surviving fraction (OVCAR4; carboplatin co-treatment 0 µM): 0.718
log2 surviving fraction (OVCAR4; carboplatin co-treatment 5 µM): -0.364
log2 surviving fraction (Ov4Carbo; carboplatin co-treatment 0 µM): 0.11
log2 surviving fraction (Ov4Carbo; carboplatin co-treatment 5 µM): 0.171

O=C(NC[C@H]1CN(c2ccc(N3CCOCC3=O)cc2)C(=O)O1)c1ccc(Cl)s1 [Rivaroxaban (Xarelto)]
log2 surviving fraction (OVCAR4; carboplatin co-treatment 0 µM): 0.723
log2 surviving fraction (OVCAR4; carboplatin co-treatment 5 µM): 0.47
log2 surviving fraction (Ov4Carbo; carboplatin co-treatment 0 µM): 0.249
log2 surviving fraction (Ov4Carbo; carboplatin co-treatment 5 µM): 0.409

CCCc1nc(C(C)(C)O)c(C(=O)OCc2oc(=O)oc2C)n1Cc1ccc(-c2ccccc2-c2nnn[nH]2)cc1 [Olmesartan medoxomil (Benicar)]
log2 surviving fraction (OVCAR4; carboplatin co-treatment 0 µM): 1.19
log2 surviving fraction (OVCAR4; carboplatin co-treatment 5 µM): -0.141
log2 surviving fraction (Ov4Carbo; carboplatin co-treatment 0 µM): 0.954
log2 surviving fraction (Ov4Carbo; carboplatin co-treatment 5 µM): 0.29

C=C[C@]1(C)C[C@@H](OC(=O)CS[C@@H]2C[C@H]3CC[C@@H](C2)N3C)[C@]2(C)[C@H](C)CC[C@]3(CCC(=O)[C@H]32)[C@@H](C)[C@@H]1O [Retapamulin]
log2 surviving fraction (OVCAR4; carboplatin co-treatment 0 µM): -1.21
log2 surviving fraction (OVCAR4; carboplatin co-treatment 5 µM): -1.22
log2 surviving fraction (Ov4Carbo; carboplatin co-treatment 0 µM): -2
log2 surviving fraction (Ov4Carbo; carboplatin co-treatment 5 µM): -2.12

Cc1ccc(NC(=O)c2ccc(CN3CCN(C)CC3)cc2)cc1Nc1nccc(-c2cccnc2)n1 [Imatinib (Gleevec)]
log2 surviving fraction (OVCAR4; carboplatin co-treatment 0 µM): -0.166
log2 surviving fraction (OVCAR4; carboplatin co-treatment 5 µM): 0.107
log2 surviving fraction (Ov4Carbo; carboplatin co-treatment 0 µM): 0.00321
log2 surviving fraction (Ov4Carbo; carboplatin co-treatment 5 µM): -0.224

COc1ccc2[nH]c([S+]([O-])Cc3ncc(C)c(OC)c3C)nc2c1 (stereo unspecified) [Omeprazole (Prilosec)]
log2 surviving fraction (OVCAR4; carboplatin co-treatment 0 µM): 0.579
log2 surviving fraction (OVCAR4; carboplatin co-treatment 5 µM): 0.331
log2 surviving fraction (Ov4Carbo; carboplatin co-treatment 0 µM): 0.857
log2 surviving fraction (Ov4Carbo; carboplatin co-treatment 5 µM): -0.456

CCC1=C(C)CN(C(=O)NCCc2ccc(S(=O)(=O)NC(=O)N[C@H]3CC[C@H](C)CC3)cc2)C1=O [Glimepiride]
log2 surviving fraction (OVCAR4; carboplatin co-treatment 0 µM): 0.946
log2 surviving fraction (OVCAR4; carboplatin co-treatment 5 µM): 0.467
log2 surviving fraction (Ov4Carbo; carboplatin co-treatment 0 µM): 0.0912
log2 surviving fraction (Ov4Carbo; carboplatin co-treatment 5 µM): 0.412

CN(C)CCCOc1nn(Cc2ccccc2)c2ccccc12 [Benzydamine Hydrochloride]
log2 surviving fraction (OVCAR4; carboplatin co-treatment 0 µM): -0.866
log2 surviving fraction (OVCAR4; carboplatin co-treatment 5 µM): -1.01
log2 surviving fraction (Ov4Carbo; carboplatin co-treatment 0 µM): -1.1
log2 surviving fraction (Ov4Carbo; carboplatin co-treatment 5 µM): -0.405

C#C[C@]1(OC(C)=O)CC[C@H]2[C@@H]3CCC4=C[C@@H](OC(C)=O)CC[C@@H]4[C@H]3CC[C@@]21C [Ethynodiol diacetate]
log2 surviving fraction (OVCAR4; carboplatin co-treatment 0 µM): -1.33
log2 surviving fraction (OVCAR4; carboplatin co-treatment 5 µM): -0.892
log2 surviving fraction (Ov4Carbo; carboplatin co-treatment 0 µM): -2.17
log2 surviving fraction (Ov4Carbo; carboplatin co-treatment 5 µM): -2.51

C=C1/C(=C\C=C2/CCC[C@]3(C)[C@@H]([C@H](C)CCCC(C)(C)O)CC[C@@H]23)C[C@@H](O)C[C@@H]1O [Calcitriol (Rocaltrol)]
log2 surviving fraction (OVCAR4; carboplatin co-treatment 0 µM): -1.44
log2 surviving fraction (OVCAR4; carboplatin co-treatment 5 µM): -2.03
log2 surviving fraction (Ov4Carbo; carboplatin co-treatment 0 µM): -0.54
log2 surviving fraction (Ov4Carbo; carboplatin co-treatment 5 µM): -1.05
